# The list shows a part of the results.
# Columns and labels:
# Assay in all cases: glycan array binding signal (z-score within array); higher = stronger binding
# Conditions in all cases: glycan notation: IUPAC condensed, linker removed
# [1] = target: Gal(a1-3)Gal(b1-4)GlcNAc(b1-2)Man
# Method in brief: (§1)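 Arrays were curated from the Consortium for Functional Glycomics database, 3228 in total, and kept only where the protein sequence was available. Binding is expressed as a within-array Z-score. This score was averaged across arrays of the same protein sequence at different concentrations or buffers and across linkers, and negative values can be read as non-binding.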
# [2] = target: Gal(a1-3)Gal(b1-4)GlcNAc(b1-2)Man(a1-3)[Gal(a1-3)Gal(b1-4)GlcNAc(b1-2)Man(a1-6)]Man(b1-4)GlcNAc(b1-4)GlcNAc
# Method in brief: as §1
# [3] = target: Gal(a1-3)Gal(b1-4)GlcNAc(b1-3)GalNAc
# Method in brief: as §1
# [4] = target: Gal(a1-3)Gal(b1-4)GlcNAc(b1-6)GalNAc
# Method in brief: as §1
# [5] = target: Gal(a1-3)Gal(b1-4)[Fuc(a1-3)]GlcNAc
# Method in brief: as §1
# [6] = target: Gal(a1-3)Gal(b1-4)[Fuc(a1-3)]GlcNAc(b1-2)Man(a1-3)[Gal(a1-3)Gal(b1-4)[Fuc(a1-3)]GlcNAc(b1-2)Man(a1-6)]Man(b1-4)GlcNAc(b1-4)GlcNAc
# Method in brief: as §1
# [7] = target: Gal(a1-3)GalNAc
# Method in brief: as §1
# [8] = target: Gal(a1-3)[Gal(a1-4)]Gal(b1-4)GlcNAc
# Method in brief: as §1
# [9] = target: Gal(a1-4)Gal(b1-3)GlcNAc(b1-2)Man(a1-3)[Gal(a1-4)Gal(b1-3)GlcNAc(b1-2)Man(a1-6)]Man(b1-4)GlcNAc(b1-4)GlcNAc
# Method in brief: as §1
# [10] = target: Gal(a1-4)Gal(b1-4)Glc
# Method in brief: as §1
# [11] = target: Gal(a1-4)Gal(b1-4)GlcNAc
# Method in brief: as §1
# [12] = target: Gal(a1-4)Gal(b1-4)GlcNAc(b1-2)Man(a1-3)[Gal(a1-4)Gal(b1-4)GlcNAc(b1-2)Man(a1-6)]Man(b1-4)GlcNAc(b1-4)GlcNAc
# Method in brief: as §1
# [13] = target: Gal(a1-4)Gal(b1-4)GlcNAc(b1-3)Gal(b1-4)Glc
# Method in brief: as §1
# [14] = target: Gal(a1-4)GlcNAc
# Method in brief: as §1
# [15] = target: Gal(a1-6)Glc
# Method in brief: as §1
# [16] = target: Gal(b1-2)Gal
# Method in brief: as §1
# [17] = target: Gal(b1-3)Gal
# Method in brief: as §1
# [18] = target: Gal(b1-3)Gal(b1-4)GlcNAc
# Method in brief: as §1
# [19] = target: Gal(b1-3)GalNAc
# Method in brief: as §1
# [20] = target: Gal(b1-3)GalNAc(a1-3)[Fuc(a1-2)]Gal(b1-4)Glc
# Method in brief: as §1
# [21] = target: Gal(b1-3)GalNAc(a1-3)[Fuc(a1-2)]Gal(b1-4)GlcNAc
# Method in brief: as §1
# [22] = target: Gal(b1-3)GalNAc(b1-3)Gal
# Method in brief: as §1
# [23] = target: Gal(b1-3)GalNAc(b1-3)Gal(a1-4)Gal(b1-4)Glc
# Method in brief: as §1
# [24] = target: Gal(b1-3)GalNAc(b1-4)Gal(b1-4)Glc
# Method in brief: as §1
# [25] = target: Gal(b1-3)GalNAc(b1-4)[Neu5Ac(a2-3)]Gal(b1-4)Glc
# Method in brief: as §1
# [26] = target: Gal(b1-3)GlcNAc
# Method in brief: as §1
# [27] = target: Gal(b1-3)GlcNAc(a1-3)Gal(b1-4)GlcNAc
# Method in brief: as §1
# [28] = target: Gal(b1-3)GlcNAc(a1-6)Gal(b1-4)GlcNAc
# Method in brief: as §1
# [29] = target: Gal(b1-3)GlcNAc(b1-2)Man
# Method in brief: as §1
# [30] = target: Gal(b1-3)GlcNAc(b1-2)Man(a1-3)[Gal(b1-3)GlcNAc(b1-2)Man(a1-6)]Man(b1-4)GlcNAc(b1-4)GlcNAc
# Method in brief: as §1
binder,measurement,setting,value
BT3172pd (Bacteroides thetaiotaomicron) (protein) MLPLRAEHYYYKQISLKEGLPSNVRCILRDEQGFIWIGTKAGLGKFDGHQLKRYKHQANDPHSLLHNLIYQIAEDKQHNIWILTEKGIARYQQQSNNFTFPTDEEGNYITAYSFCLVPDGILFGGKDRIYKYSYKDSSLRLLQYFNANSFKITALSVWDSKTLLCCSRWTGLYLVDLQTGEHRRPPFDCGPEITSMITDSKNRIWIAPYSGGLRCYSRDGKLSASYTTHNSSLSNDIVLSLAEREEQLWIGTDGGGINILHPETGEISQLEYIPGRENYSLPANSILCLHNDYNNNVWAGSTCNGLISIREVSMKTYTDVVPGNDRGLSNGTVRSLYRQSPDSIWIGTDGGGINLFSPHTEKFTHYSSTWGDKVAFISGFTPGKLLISLFSKGVFVFNPATGEKQPFTIIDKETTTRLCNRGKSVNLYQNTPNTVLFLGDHIYQYHLKEKKFSTITEEEGKDIVGTLVPFDHQENLTYINDIKHIYELDDQTSRLKTVFECYTDTVISSVSHDEQGHFWIGSNFGLIHYDPVLKSRTLVPTNLFTEINMVLCDQKGKVWIGVDNMLFAYFIKEQKFVLFGESNGAIQNEYLPNARLVNEQGDAYIGGVKGMLRIDGQLLLNTSEMPELQLLDITINGESANHEWYNHPAKISVPWNSNISIRIMSREEDIFRQKIYRYQIEGLNNEYTESYNPELVIRSLLPGSYRIMASCTAKDGSWIPDQQVLELTVLPPWYRTHHHHHH,glycan array binding signal (z-score),[1],-0.075
same,glycan array binding signal (z-score),[2],-0.172
same,glycan array binding signal (z-score),[3],-0.017
same,glycan array binding signal (z-score),[4],-0.148
same,glycan array binding signal (z-score),[5],-0.344
same,glycan array binding signal (z-score),[6],2.4
same,glycan array binding signal (z-score),[7],-0.02
same,glycan array binding signal (z-score),[8],2.39
same,glycan array binding signal (z-score),[9],-0.406
same,glycan array binding signal (z-score),[10],0.225
same,glycan array binding signal (z-score),[11],-0.091
same,glycan array binding signal (z-score),[12],0.102
same,glycan array binding signal (z-score),[13],0.357
same,glycan array binding signal (z-score),[14],-0.146
same,glycan array binding signal (z-score),[15],0.025
same,glycan array binding signal (z-score),[16],-0.165
same,glycan array binding signal (z-score),[17],0.26
same,glycan array binding signal (z-score),[18],0.133
same,glycan array binding signal (z-score),[19],-0.494
same,glycan array binding signal (z-score),[20],-0.543
same,glycan array binding signal (z-score),[21],-0.781
same,glycan array binding signal (z-score),[22],1.89
same,glycan array binding signal (z-score),[23],-0.415
same,glycan array binding signal (z-score),[24],0.005
same,glycan array binding signal (z-score),[25],-0.01
same,glycan array binding signal (z-score),[26],0.277
same,glycan array binding signal (z-score),[27],-0.578
same,glycan array binding signal (z-score),[28],-0.458
same,glycan array binding signal (z-score),[29],0.03
same,glycan array binding signal (z-score),[30],-0.433
